For this experiment, the system named is Plasmodium falciparum. Description: Primary screen in NF54 nanoGlo assay, in single point, at 2uM, 72h; a lower Z score goes with more inhibition. The class given is functional, Erythrocyte. The conditions noted are these: timepoint 72 hour.

Screen size: about 150,000 compounds; about 540 (0.36%) showed an effect of 50% or more. The list shows a part of the results.

Broadly, the % Inhibition is the change of the read-out against control, counted positive when it falls. `Cc1cc(Br)cc(C(=O)N2CCCn3nnnc32)c1`: the “% Inhibition” value was -5% and the Z score turned out to be 0.61.
The like results for `Cc1cc2c(cc1C)N(CC(=O)Nc1ccccc1)C(=O)[C@H]1CCCC1=N2` were, in that order, -2% and 0.3.
The like results for `CCN1CCCc2cc(CN(C(=O)Nc3ccc(C)c(C)c3)C3CCCC3)ccc21` were, in that order, -1% and 0.1.
The like results for `Cc1nn(CC2CCOCC2)c(=O)n1C` were, in that order, -16% and 2.34.
Consider `O=C(CCS(=O)(=O)c1ccc(Cl)cc1)Nc1nc(-c2ccc3c(c2)OCCO3)cs1`, for which the “% Inhibition” value was 0% and the Z score worked out at 0.09.
In the case of `Cc1cccc(CNc2cc(S(=O)(=O)N3CCOCC3)ccc2N2CCCC2)c1`, the “% Inhibition” value is -10% and the Z score is listed as 1.16.
Regarding `O=C(O)[C@@H]1CN(c2cc(C3CC3)ncn2)C[C@H]1C(F)(F)F`, the “% Inhibition” value worked out at 6% and the Z score is on record as -1.12.
The like results for `COc1cccc([C@H]2CC(O)=Nc3nc(N)sc32)c1` were, in that order, 1% and -0.16.
In the same order, the values of `O=C(NC[C@H]1CCCO1)c1ccc(-c2ncnc3ccsc23)cc1` are -7% and 1.37.
In the same order, the values of `Cc1ccc(C2(CNC(=O)C[C@H](NC(=O)OC(C)(C)C)C3CC3)CC2)c(C)c1` are -13% and 1.97.
On to `Cc1ccc(CCN[C@@H](C)C2CCOCC2)cn1`, for which the “% Inhibition” value was -5% and the Z score turned out to be 0.42.
In the same order, the values of `Cc1nc(O)c(Cl)c(N2CCC(N3CCOCC3)CC2)n1` are -4% and 0.48.
The like results for `Cn1c(-c2cnn(CC3CC3)c2)cc2ccccc21` were, in that order, -3% and 0.53.
Consider `CCOc1ccc(CNC(=O)CN2C(=O)[C@@H]3CCCCN3c3ccc(C(=O)N4CCCC4)cc32)cc1`, for which the “% Inhibition” value is -7% and the Z score is 1.17.
In the same order, the values of `Cc1ccc(-n2ncc(C(=O)NC3CCCCC3)c2C2CCN(C(=O)OC(C)(C)C)CC2)c(C)c1` are -16% and 1.57.
The like results for `O=C(C#Cc1ccccc1)NCCc1cnccn1` were, in that order, -5% and 0.7.
As for `CCn1ccnc1[C@H]1OCCC[C@@H]1NC(=O)CCOCC(F)F`, the “% Inhibition” value came out at 15% and the Z score was -1.87.
In the same order, the values of `C(=C\c1ccco1)/CN(Cc1cccnc1)Cc1ccc2c(c1)OCO2` are 0% and -0.01.
For the compound `COc1ccc(-c2ccc3c(ccn3CC(=O)Nc3cnn(C)n3)c2)cc1F`, the “% Inhibition” value is -9% and the Z score turned out to be 1.11.
Take `c1cn(Cc2ccc(CNc3nc(C4CC4)ns3)cc2)cn1`: the “% Inhibition” value is -10% and the Z score is 1.05.
In the same order, the values of `CCCN(Cc1ccsc1)S(=O)(=O)c1cnn(C)c1` are -10% and 1.62.
In the same order, the values of `COc1ccc(CCN(Cc2ccco2)C(=O)CN(C(=O)Nc2c(C)cccc2C)C(C)C)cc1OC` are -5% and 0.86.
In the case of `Cc1nc(CN2C(=O)c3ccccc3CS2(=O)=O)sc1C`, the “% Inhibition” value is listed as 8% and the Z score is reported as -1.49.
Take `Cn1cccc1C(=O)N1CCC[C@@]2(CO)CN(c3ncccn3)CC[C@H]12`: the “% Inhibition” value was -16% and the Z score came out at 3.45.
In the same order, the values of `Clc1ccc(N2CCN(c3ccc(-c4nc(-c5ccccc5)no4)cn3)CC2)cc1` are -14% and 2.02.
The like results for `N#Cc1ccc(S(=O)(=O)N2CCC[C@H](Oc3cnccn3)C2)cc1` were, in that order, -2% and 0.3.
The like results for `CC(C)n1nc(O)c2c(-c3cccc(OC(F)F)c3)c3sc(=O)[nH]c3nc21` were, in that order, 0% and 0.02.
In the case of `CNC(=O)C(C)(C)CN[C@H]1CC2(CCOCC2)Oc2ccccc21`, the “% Inhibition” value is reported as -16% and the Z score is on record as 2.14.
The like results for `COc1ccc(CN(C(=O)c2ccco2)c2nccs2)c(OC)c1` were, in that order, 11% and -1.52.
The like results for `Cn1cc(-c2cncc(CNC(=O)c3cnccn3)c2)cn1` were, in that order, 8% and -1.05.
The like results for `COc1ccccc1Nc1cc(Nc2ccccc2OC)n(S(=O)(=O)c2ccc(C)cc2)n1` were, in that order, 30% and -3.43.
In the case of `Cc1nsc(NC(=O)c2cc3c(s2)CCCCC3)n1`, the “% Inhibition” value is recorded as -2% and the Z score is 0.28.
The like results for `COc1cccc(CC(=O)Nc2ccn(-c3ccc(C#N)cc3)n2)c1` were, in that order, -3% and 0.5.
In the same order, the values of `CCCCc1csc(C(=O)N2CC3CCC2C3)n1` (centres undefined) are -2% and 0.33.
With `COCCN(Cc1scnc1C)C(=O)CCc1cncc(C)c1`, the “% Inhibition” value is given as 10% and the Z score was -1.39.
On to `Cc1cc(C(=O)NC[C@H]2CC[C@H](CO)CC2)c(O)cn1`, for which the “% Inhibition” value was determined as 0% and the Z score came out at 0.03.
In the same order, the values of `Cc1cnc(NC(=O)[C@@H]2CCCN[C@@H]2C2CC2)s1` are 2% and -0.41.
For the compound `CN(C[C@H]1COCCO1)C(=O)c1cc(C#N)c[nH]1`, the “% Inhibition” value was -29% and the Z score is listed as 2.66.
In the same order, the values of `Cc1nnc([C@H](C)Nc2ccc3c(c2)OC(F)(F)O3)o1` are -12% and 1.13.
The like results for `Cc1c[nH]c(CN2C[C@H](C(C)C)[C@@H](N)C2)c(C)c1=O` were, in that order, -14% and 1.24.
In the same order, the values of `Cn1ccc(Nc2ccccc2NC(=O)COC[C@H]2CCCO2)n1` are -9% and 1.13.
On to `O=C1NCCOCCCN(C(=O)Nc2ccccc2)[C@H]2CCC[C@@H]12`, for which the “% Inhibition” value was determined as 7% and the Z score is given as -1.04.

These data come from ChEMBL document CHEMBL4888484, “Replenishing the malaria drug discovery pipeline: Screening and hit evaluation of the MMV Hit Generation Library 1 (HGL1) against asexual blood stage Plasmodium falciparum ,using a nano luciferase reporter read-out” (2022).
